# Experimental data: PubChem BioAssay AID651820 (National Center for Advancing Translational Sciences (NCATS), 2012)
# “And” between values parts separate entries of the source, which are not always exact repeats. Equal values may be shown once. Screen size: about 340,000 compounds; about 12,000 (3.5%) were called active. Inconclusive results, whose numbers are uncertain, are shown with a selection of clear calls. Calls follow the shape of the dose curve; as a rule, active = well fitted inhibition curve with a large enough effect; inconclusive = small, poorly fitted or top-dose-only effect, or another doubt; inactive = no such curve, though single readings can be large or run the other way. Where the call is inconclusive, the potency comes from a doubtful curve fit.
# Test: qHTS Assay for Inhibitors of Hepatitis C Virus (HCV)
# Conditions: Huh7.5.1 HCVcc-Cre (HCVcc is cell-culture hepatitis C virus) infection, luciferase reporter, 44 h; series mostly up to 41.8 µM
# Method in brief: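 A cell-based infection assay in which seeded cells (1,000 per well) receive test compound after 4 h, are inoculated with HCVcc-Cre at approximately 0.5 moi, and are incubated 44 h before luminescence detection.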
# Potency is read from the fitted curve at half-maximal effect; tags tell the direction and shape of the fitted curve.
row,Structure (SMILES),Potency
1,Cc1ccc(C(=O)Nc2cccc(C(=O)N3CCN(C)CC3)c2)cc1,inactive
2,Oc1ccc(CN2CCc3ccccc3C2)c2cccnc12,active: 3.98 µM
3,COc1ccc2c(C)cc(SCC(=O)NCCN3C(=O)CSC3=O)nc2c1,"inconclusive: 15.8 µM [inhibitor, single point]"
4,CCC1CN(C(=O)NCc2ccccc2)c2ccccc2O1 (stereo unspecified),"inconclusive: 3.55 µM [inhibitor, single point]"
5,COc1ccc2ccc(OC)c(/C=N/n3cnnc3)c2c1,"inconclusive: 31.6 µM [inhibitor, single point]"
6,CC1(C)CC(=O)c2sc(NC(=O)c3ccc4ncsc4c3)nc2C1,"inconclusive: 22.4 µM [inhibitor, partial curve]"
7,O=C(CC(SCCO)c1ccc2c(c1)OCO2)c1cccs1 (stereo unspecified),"inconclusive: 22.4 µM [inhibitor, single point]"
8,CCOC(=O)c1ccc(NC(=O)c2cc(C)nn2-c2ccccc2)cc1,inactive
9,Oc1ccccc1N1CCN(C(=S)Nc2ccc(SC(F)F)cc2)CC1,"inconclusive: 3.55 µM [inhibitor, single point]"
10,CCOc1ccc(S(=O)(=O)N2CCN(C(=O)c3cc(C4CC4)nn3-c3ccccc3)CC2)cc1,"inconclusive: 3.55 µM [inhibitor, partial curve]"
11,O=S(=O)(c1ccc(Cl)nc1)N1CCCC1,inactive
12,Cc1nc2ccccc2c(=O)n1-c1ccc(NS(=O)(=O)c2ccccc2)cc1,"inconclusive: 31.6 µM [inhibitor, single point]"
13,COc1ccccc1C1CC(c2ccc(NS(C)(=O)=O)cc2)=NN1S(=O)(=O)c1ccccc1 (stereo unspecified),inactive
14,CCOC(=O)C1=C(N)Oc2cc(O)ccc2C1c1ccccc1 (stereo unspecified),inactive
15,Cc1ccc(C)c(N=Nc2nc3ccccc3n2C)c1,active: 14.1 µM
16,C=CCN(c1ccccc1)S(=O)(=O)c1cccc(C(=O)NCC(c2ccc(OC)cc2)N2CCCCC2)c1 (stereo unspecified),active: 6.31 µM
17,O=C(Nc1cccnc1)c1cc(-c2ccc(Br)cc2)nc2ccccc12,active: 3.16 µM
18,Cc1cc(OC(=O)c2c(C)cc(OC(=O)c3c(C)cc(O)cc3O)cc2O)cc(O)c1C(=O)O,inactive
19,NC(=S)N/N=C1\CCSc2ccc(Cl)cc21,"inconclusive: 14.1 µM [inhibitor, single point]"
20,O=C(Nc1ccc(C(=O)NCC2CCN(Cc3ccccc3F)CC2)cc1)C1=CSCCO1,inactive
21,Cn1c(SCC(=O)Nc2ccccc2)nc2ccccc2c1=O,"inconclusive: 11.2 µM [inhibitor, single point]"
22,Cc1noc(C)c1CC(=O)N1CCCC(C(=O)c2ccc(C(C)(C)C)cc2)C1 (stereo unspecified),"inconclusive: 15.8 µM [inhibitor, single point]"
23,CCC(=O)Nc1ccc(N2CCOCC2)c(S(=O)(=O)Nc2ccc(Cl)cc2)c1,"inconclusive: 12.6 µM [inhibitor, single point]"
24,Cc1nc(Nc2ccccc2Br)c2nnn(Cc3ccccc3)c2n1,"inconclusive: 10 µM [inhibitor, partial curve]"

row,Structure (SMILES),Potency
1,CC1=CC(C)(C)N2C(=O)C(=Nc3ccc(O)cc3)c3cccc1c32,"inconclusive: 31.6 µM [inhibitor, single point]"
2,COc1ccc(CC(=O)NC(C)CCc2ccccc2)cc1OC (stereo unspecified),"inconclusive: 11.2 µM [inhibitor, single point]"
3,COc1cccc(C2CC(c3ccccc3)=NN2S(=O)(=O)c2ccccc2)c1OC (stereo unspecified),"inconclusive: 31.6 µM [inhibitor, single point]"
4,O=C(CCCCCN1C(=O)CCC1=O)Nc1ccc(Br)cc1F,inactive
5,NCCNC(=O)c1c(NC(=O)c2ccccc2)sc2c1CCCC2,"inconclusive: 8.91 µM [inhibitor, partial curve]"
6,CCCCn1nc(C(=O)Nc2ccc3c(c2)OCCO3)c2ccccc2c1=O,"inconclusive: 11.2 µM [inhibitor, single point]"
7,COc1ccc(OC(=O)c2ccncc2)cc1,inactive
8,Cc1cc(F)ccc1NC(=O)Cn1c(C)csc1=O,inactive
9,CCC1COC(c2cccn2Cc2ccc(Cl)cc2)=N1 (stereo unspecified),inactive
10,COC(=O)c1ccc(N2CCN(C(C)=O)CC2)c(NC(=O)c2cccnc2)c1,"inconclusive: 6.31 µM [inhibitor, full curve, poor fit]"
11,CCN1CCCC1CN(Cc1cc2cc(C)ccc2[nH]c1=O)C(=O)Nc1ccccc1OC (stereo unspecified),"inactive and inconclusive: 2.82 µM [inhibitor, partial curve, poor fit]"
12,O=P1(N(CCCl)CCCl)NCCCO1 (stereo unspecified),"inconclusive: 5.62 µM [inhibitor, single point]"
13,O=C(CN1CCCCCC1)Nc1ccc(Br)cc1[N+](=O)[O-],"inconclusive: 20 µM [inhibitor, partial curve, poor fit]"
14,CC(C)(C)OC(=O)NCCCC[C@H](NC(=O)c1nc[nH]c1C(=O)NC1CCN(C(=O)OC(C)(C)C)CC1)C(=O)OC(C)(C)C,"inconclusive: 22.4 µM [inhibitor, single point]"
15,CCCC1(C(=O)OC)NC(c2ccc(OC)c(OC)c2)C2C(=O)N(c3ccc4c(c3)OCO4)C(=O)C21 (stereo unspecified),"inconclusive: 5.62 µM [inhibitor, single point]"
16,CC[C@]12c3[nH]c4ccccc4c3CCN1C(=O)C(CC(=O)NCCc1ccccn1)C[C@@H]2C(=O)N1CCN(C(=O)c2ccco2)CC1 (stereo partly specified),active: 0.562 µM
17,O=C(COc1ccc2c(c1)oc(=O)c1ccccc12)NCCCN1CCOCC1,"inconclusive: 6.31 µM [inhibitor, full curve]"
18,CCn1nc(C(=O)OCC(=O)N(CCC#N)c2ccccc2)c2ccccc2c1=O,inactive
19,CCOc1ccc(NC(=O)CN(C)C(=O)c2cc(S(=O)(=O)N(C)C)ccc2N2CCCC2)cc1OCC,inactive
20,CCOC(=O)c1cnc2ccccc2c1Nc1ccc2c(c1)OCCO2,"inconclusive: 28.2 µM [inhibitor, single point]"
21,C=CCn1c(=N)c(S(=O)(=O)c2ccc(C)c(C)c2)cc2c(=O)n3ccccc3nc21,"inconclusive: 14.1 µM [inhibitor, single point]"
22,COc1ccc(C(=O)c2ccc(OC)cc2OC)cc1,"inconclusive: 7.08 µM [inhibitor, partial curve]"
23,OCCNCCOCCOc1ccccc1-c1ccccc1,"inconclusive: 31.6 µM [inhibitor, single point]"
24,O=C(NCCc1ccccc1F)C1CCCN1S(=O)(=O)c1ccc2ccccc2c1 (stereo unspecified),"inconclusive: 10 µM [inhibitor, single point]"

row,Structure (SMILES),Potency
1,O=C(Nc1cccc(-c2cccc(F)c2)c1)C1CCN(CC2CCOC2)CC1 (stereo unspecified),"inconclusive: 31.6 µM [inhibitor, single point]"
2,CCC(C)NC(=O)c1cn(CC)c2ccc(S(=O)(=O)N3CCCCC3)cc2c1=O (stereo unspecified),inactive
3,O=C(Nc1cccc(NC(=O)c2cccnc2Cl)c1)c1ccco1,"inconclusive: 10 µM [inhibitor, partial curve]"
4,Cc1nn(-c2ccccc2)c(Cl)c1/C=N/Nc1nnc(C)c(=O)[nH]1,"inconclusive: 10 µM [inhibitor, partial curve, poor fit]"
5,CC(C)C(=O)Nc1ccc(NC(=O)c2cc3ccccc3o2)cc1,"inconclusive: 11.2 µM [inhibitor, single point]"
6,COc1ccc(S(=O)(=O)N2CCN(CC(=O)Nc3sccc3C(N)=O)CC2)cc1OC,"inconclusive: 15.8 µM [inhibitor, single point]"
7,S=C(Nc1ccc(N2CCOCC2)cc1)Nc1ccc2nc(-c3ccco3)c(-c3ccco3)nc2c1,"inconclusive: 31.6 µM [inhibitor, single point]"
8,Cc1cc(OCC(=O)Nc2ccccc2C)no1,inactive
9,Cc1ccc(-c2csc(NC(=O)CN3CCOCC3)n2)cc1,"inconclusive: 20 µM [inhibitor, single point]"
10,N#CC(=Cc1ccncc1)c1ccccc1,"inconclusive: 11.2 µM [inhibitor, single point]"
11,NC(N)=Nc1nc2ccc([N+](=O)[O-])cc2[nH]1,inactive
12,S=c1nc(-c2ccccc2)[nH]c2ccc(Br)cc12,inactive
13,O=[N+]([O-])c1ccc(/C=N/N2CCN(Cc3ccccc3)CC2)cc1,"inconclusive: 22.4 µM [inhibitor, single point]"
14,CCCc1ccc(OCc2ccc(C(=O)NCc3cccnc3)o2)c(OC)c1,"inconclusive: 25.1 µM [inhibitor, partial curve]"
15,CSc1cc(-c2ccncc2)nc(-c2ccc(Cl)cc2)c1,"inconclusive: 8.91 µM [inhibitor, partial curve]"
16,Cc1cccn2c(=O)c3cc(C#N)c(=NC(=O)c4ccccc4)n(Cc4ccco4)c3nc12,active: 3.98 µM
17,C=C(C)c1cccc(C(C)(C)NC(=O)Nc2ccc3[nH]c(=O)[nH]c3c2)c1,"inconclusive: 8.91 µM [inhibitor, partial curve]"
18,N/C(=N\OC(=O)c1cccc2ccccc12)c1ccccn1,"inconclusive: 15.8 µM [inhibitor, single point]"
19,CCOc1ccccc1N(CC(=O)Nc1ccc(OC)cc1OC)S(=O)(=O)c1ccccc1,"inconclusive: 12.6 µM [inhibitor, single point]"
20,Cc1cccc(OCc2nc3ccccc3n2C)c1,inactive
21,COc1ccc(S(=O)(=O)NC(N)=NCCc2ccccc2OC)cc1,inactive
22,CCC(=O)c1ccc(OCC(=O)OCC(=O)c2c(N)n(C)c(=O)n(C)c2=O)cc1,inactive
23,C=CCNC(=S)N/N=C/c1ccc(C(C)(C)C)cc1,"inconclusive: 31.6 µM [inhibitor, single point]"
